In all, about 310,000 compounds went through this assay and about 14,000 (4.5%) showed an effect of 50% or more. The effect is printed as a negative number. Some of the results follow.

Here are results for 43 molecules from publication PMC4336329 (PLoS ONE, 2015).
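Note: peak tail current of the secondary pulse compared with the same well before compound.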

human ether-à-go-go-related gene (hERG) potassium channel, sequence (Q12809 whole entry, looked up): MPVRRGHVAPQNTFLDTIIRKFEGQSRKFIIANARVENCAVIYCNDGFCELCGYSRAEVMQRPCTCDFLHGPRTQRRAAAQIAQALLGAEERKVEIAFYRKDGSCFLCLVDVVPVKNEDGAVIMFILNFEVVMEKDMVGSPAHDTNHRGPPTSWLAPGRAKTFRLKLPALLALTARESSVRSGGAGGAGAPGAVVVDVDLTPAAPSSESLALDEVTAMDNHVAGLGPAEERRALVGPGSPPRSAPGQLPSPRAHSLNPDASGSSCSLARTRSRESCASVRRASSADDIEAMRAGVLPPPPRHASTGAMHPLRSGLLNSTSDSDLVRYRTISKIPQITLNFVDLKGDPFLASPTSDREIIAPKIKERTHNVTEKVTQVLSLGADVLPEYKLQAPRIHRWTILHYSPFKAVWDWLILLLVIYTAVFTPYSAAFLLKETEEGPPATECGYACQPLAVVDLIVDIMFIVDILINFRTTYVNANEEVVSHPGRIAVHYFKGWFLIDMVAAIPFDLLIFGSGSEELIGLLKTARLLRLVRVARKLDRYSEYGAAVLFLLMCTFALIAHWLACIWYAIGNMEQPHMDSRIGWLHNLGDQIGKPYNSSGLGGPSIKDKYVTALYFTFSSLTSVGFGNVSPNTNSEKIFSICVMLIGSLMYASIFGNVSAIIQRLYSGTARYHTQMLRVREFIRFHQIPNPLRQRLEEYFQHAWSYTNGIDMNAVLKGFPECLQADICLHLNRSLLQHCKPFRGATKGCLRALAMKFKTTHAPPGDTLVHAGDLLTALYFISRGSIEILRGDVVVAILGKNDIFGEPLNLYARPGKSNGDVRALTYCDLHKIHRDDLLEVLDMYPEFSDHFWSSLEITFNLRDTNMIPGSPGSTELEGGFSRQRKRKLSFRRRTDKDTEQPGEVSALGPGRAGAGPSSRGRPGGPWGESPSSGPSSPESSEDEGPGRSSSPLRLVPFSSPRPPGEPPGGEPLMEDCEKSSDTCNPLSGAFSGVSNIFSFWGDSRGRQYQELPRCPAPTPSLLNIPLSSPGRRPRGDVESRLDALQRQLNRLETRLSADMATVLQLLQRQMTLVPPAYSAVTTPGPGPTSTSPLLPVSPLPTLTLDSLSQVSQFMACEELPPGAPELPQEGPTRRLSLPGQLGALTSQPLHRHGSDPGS

The test concerns the target human ether-à-go-go-related gene (hERG) potassium channel (human, UniProt Q12809). Kind of test: primary screen, population patch clamp on CHO cells stably expressing hERG.
In the case of `Cc1cccc(-c2nnc(SC(C)C(=O)N3CCOCC3)o2)c1` (stereo not shown), the “hERG current change (%, negative = inhibition) at 10uM” value was found to be 7.83%.
The result for `O=C(NC1=NCCS1)c1cc2ccccc2o1` reads -23.8%; that for `CN1C(C)(C)c2ccccc2OS1(=O)=O`, 4.02%.
On to `Cc1ccc(N/N=C(\C#N)C(=O)c2ccsc2)cc1`, for which the “hERG current change (%, negative = inhibition) at 10uM” value was determined as 2.77%.
Turning to `CC(=O)Nc1ccc(C(=O)COC(=O)CCN2C(=O)C3CC=CCC3C2=O)cc1` (stereo not shown), the “hERG current change (%, negative = inhibition) at 10uM” value was 18.4%.
In the case of `CC(=O)N(c1ccc(C(C)C)cc1)C1C=CS(=O)(=O)C1` (stereo not shown), the “hERG current change (%, negative = inhibition) at 10uM” value is on record as 3.93%.
The result for `COc1cc(S(=O)(=O)N2CCOCC2)c(OC)c(S(=O)(=O)N2CCOCC2)c1` reads 7.57%.
The result for `Cc1nc2nc(SCc3nc4ccccc4[nH]3)[nH]c2cc1Br` reads 14.1%; that for `COC(=O)C1=C(c2ccc(C(C)=O)cc2)C[C@@H]2CC[C@H]1N2C(=O)NC(C)C`, 15%; that for `COc1ccc(C)cc1NC(=O)CN1CCN(S(=O)(=O)c2ccc(Br)cc2)CC1`, -30.5%.
As for `CC1CC(C)CN(c2ncnc3c2cnn3Cc2ccc(Cl)cc2)C1` (stereo not shown), the figure is -3.26%.
`Cc1cc(S(=O)(=O)N(Cc2ccccn2)Cc2ccco2)ccc1-n1cnnn1`: the “hERG current change (%, negative = inhibition) at 10uM” value is on record as -20.5%.
The result for `CCCC(=O)Nc1ccc(C(=O)Nc2nc(CC(=O)OCC)cs2)cc1` reads -13.2%; that for `O=C(c1cc[n+]([O-])cc1)N1CCCC(N2CCN(c3cccc(C(F)(F)F)c3)CC2)C1` (stereo not shown), -6.27%; that for `Cc1ccccc1NC(=O)c1[nH]cnc1C(=O)NN`, 9.21%.
On to `C=CCC(O)(CC=C)CNC(=O)c1ccc(OC)c(OC2CCN(C(C)=O)CC2)c1`, for which the “hERG current change (%, negative = inhibition) at 10uM” value is reported as 14.9%.
Turning to `O=C(N/C(=C\c1cccc([N+](=O)[O-])c1)C(=O)N1CCOCC1)c1ccco1`, the “hERG current change (%, negative = inhibition) at 10uM” value is 14.9%.
The result for `Cc1c(C)n(C)c2ccc(C(=O)N3CCN(c4ccccc4)CC3)cc12` reads -5.05%; that for `Cc1ccc(S(=O)(=O)N(CC(=O)NCC2CCCO2)Cc2ccc(F)cc2)cc1` (stereo not shown), -10.6%.
As for `C[C@@H](C(=O)N[C@@H](Cc1ccccc1)C(=O)O)n1nnc2ccccc2c1=O`, the figure is 5.17%; as for `CC(=O)N1CCN(S(=O)(=O)c2cccc(C(=O)OCN3C(=O)c4ccccc4C3=O)c2)CC1`, -1.95%.
As for `COc1ccc([C@H](NC(=O)OC(C)(C)C)C(=O)OC(C)(C)C)cc1`, the figure is 4.04%.
Take `CCOc1ccc(-n2nnc3c(=O)n(CC(=O)Nc4cc(C)on4)cnc32)cc1`: the “hERG current change (%, negative = inhibition) at 10uM” value was 13.3%.
Consider `COc1ccc(N(CC(=O)NCCC2=CCCCC2)S(=O)(=O)c2ccccc2)cc1`, for which the “hERG current change (%, negative = inhibition) at 10uM” value turned out to be 2.57%.
The result for `COc1ccccc1C(=O)NC(=O)CSc1nc2nc(C)cc(C)n2n1` reads 0.704%; that for `CC(=O)c1cccc(OCC(=O)Nc2cc(Cl)ccc2-n2cncn2)c1`, -33.5%.
For the molecule `CCc1ccc(C(=O)NNC(=O)c2ccc(OCC(=O)N3CCOCC3)c(OC)c2)cc1`, the “hERG current change (%, negative = inhibition) at 10uM” value amounted to 10.6%.
With `CCn1ccnc1CN(C)Cc1cn(-c2ccc(C)cc2)nc1-c1cccc(C)c1`, the “hERG current change (%, negative = inhibition) at 10uM” value is -28.1%.
As for `COc1cccc(Oc2coc3cc(OC(=O)N4CCOCC4)ccc3c2=O)c1`, the “hERG current change (%, negative = inhibition) at 10uM” value is reported as -4.27%.
With `CCOC(=O)c1ccc(NC(=O)CSc2nnc(Cc3cccs3)n2C)cc1`, the “hERG current change (%, negative = inhibition) at 10uM” value is recorded as 3.78%.
For the molecule `Cc1cc(Br)ccc1NC(=O)CN1C(=O)CCC1=O`, the “hERG current change (%, negative = inhibition) at 10uM” value is on record as 13.1%.
`COc1ccc(CNC(=O)CCCc2ccccc2)cc1`: the “hERG current change (%, negative = inhibition) at 10uM” value was -14%.
Regarding `COc1ccc(Cl)c(OC)c1C(=O)NC(=O)Nc1nc(C)nc(C)n1`, the “hERG current change (%, negative = inhibition) at 10uM” value was determined as 6.8%.
For `O=C(Nc1ccc2c(c1)OCCO2)C1CCN(c2nnnn2-c2ccccc2)CC1`, the “hERG current change (%, negative = inhibition) at 10uM” value is recorded as 0.307%.
As for `CCc1nc2ccc(C(=O)O)cc2nc1CC`, the figure is 6.59%; as for `Nc1c(Cl)cc(-c2cn(CCC(=O)O)c(-c3ccc(Cl)nc3)n2)cc1Cl`, 20.4%; as for `O=C(NCC(=O)N(c1cccc(F)c1)C(C(=O)NC1CCCC1)c1cccnc1)c1ccco1` (stereo not shown), -6.84%.
Turning to `CCOC(=O)N1CCC(N2C(=O)c3ccccc3C2Nc2cc(OC)c(OC)c(OC)c2)CC1` (stereo not shown), the “hERG current change (%, negative = inhibition) at 10uM” value is -17.8%.
As for `Cc1ccc2nc(Cl)c(/C=N/n3c(C)nnc3C)cc2c1`, the figure is 7.28%; as for `CC(Sc1ncn[nH]1)C(=O)NCc1ccccc1` (stereo not shown), 8.18%; as for `CCOCc1c(C(=O)NCc2ccccc2CN2CCCC2)oc2ccccc12`, -72%.
As to `O=C(c1ccc2c(=O)n3c(nc2c1)CCCCC3)N1CCN(c2ccc(Cl)cc2)CC1`, the “hERG current change (%, negative = inhibition) at 10uM” value is -48%.
As for `COc1ccc2oc(-c3ccccc3)c(C(=O)O)c2c1`, the figure is 32.6%.
